Measurements taken from the supplement of paper PMC8674133.
Numbering of substitutions follows the chain as printed. Recombinant human monoclonal antibodies (heavy:light variable regions). ELISA EC50 on the named antigen, from 10 µg/ml down; IC50 / IC90 against spike pseudovirus on 293T-ACE2 cells, 48 h; lower = stronger. Calls: IC50 above 1,000 ng/ml = non-neutralizing; EC50 above 2,000 ng/ml = non-binder. The source prints 1000 for neutralization that was not reached; it is given as >1000 ng/ml. A few antibodies were first reported in earlier work of the same group.

B1: C1217 (protein)
chain 1: EVQLVESGGGLVQPGGSLRLSCAASGFTVSRSYINWVRQAPGKGLEWVSVIYSGGSTHYADSVKGRFIISRDNSKNTVYLQLNSLRAEDTAVYYCARDITIFGVGNYGMDVWGLGTTVTVSS
chain 2: DIQLTQSPSFLSASVGDRVTITCRASQGISNFLAWYQQKPGKAPKLLIYAASTLQSGVPSRFSGSGSGTEFTLTISSLQPEDFATYYCQQLNSYRPWTFGQGTKVEIK
B2: C1232 (protein)
chain 1: EVQLVETGGGLIQPGGSLRLSCAVSGFTVSRNYMSWVRQAPGKGLEWVSGIFSGGSTFYADSVQGRFTISRDSSKNTLFLQMDSLRAEDTAVYYCARDLEMAGGFDSWGQGTLVTVSS
chain 2: B1 chain 2 with N31S, F32Y, Q90H, R95P, P96S, W97I, K104R, V105L
B3: C1214 (protein)
chain 1: EVQLLESGGGLVQPGGSLRLSCAASGFTFSNYAMSWVRQAPGKGLEWVSTISGNGGITHYADSAKGRFTISRENSKNTLYLQMSSLRAEDTAVYYCAKDIGSTIAVEIMEYWGQGTLVTVSS
chain 2: DIQMTQSPSSLSASVGDRVTITCRASQSISRYLNWYQQIPGKAPKLLIYVASSLQSGVPSRFSGSGSGTDFTLTISSLQPEDFATYYCQQSYTTPYTFGQGTKLEIK
B4: C1228 (protein)
chain 1: QVQLVESGGGLVKPGGSLRLSCAASGFTFSDYHMSWIRQAPGKGLECISYISRSESTIYDADSVKGRFTSSRDNAKNSLYLQMNSLRAEDTAVYYCAREGYSSESFDYWGQGTLVTVSS
chain 2: SYELTQPPSVSVAPGKTARITCGANDIGSKSVHWYQQKPGQAPVLVVYDDSDRPSGIPDRFSGSNSGNTATLTISRVEAGDEADYYCHVWDGSSEHLVLFGGGTKLTVL
B5: C2432 (protein)
chain 1: EVQLVESGGGLVQPGGSLRLSCAASGFIFSDHDMHWVRQVPGKGLEWVSVIGSAGDTYYADSVKGRLIISRENVKNSLYLQMNNLRAGDTAIYYCVRGVDFRYCSGGRCFSHYYFDYWGQGTLVTVSS
chain 2: DIQLTQSPSSLSASVGDRVIITCRASQTINRYLNWYQQKPGKAPKLLIYAASNLQTGVPSRFSGSGSGTDFTLTISSLQPEDFATYYCQQSYSTLEYTFGQGTKLEIK
B6: C1208 (protein)
chain 1: QVQLQESGPGLVKPSETLSLTCAVSGYSISSDYFWGWIRQPPGKGLEWIGTIYRSGNTYYSPSLKSRVTVSVDTSKNQFSLKLTSVTAADTAVYYCASNKWLRGNFDYWGQGNLVTVSS
chain 2: NFMLTQPHSVSESPGKTVTISCTRSGDNIASNYVQWYQQRPGSSPTTVIYEDNQRPSGVPDRFSGSIDSSSNSASLTISGLKTEDEADYYCQSYDVSNFWVFGGGTKLTVL
B7: C1224 (protein)
chain 1: QLQLQESGPGLVKPSETLSLTCAVSGDSISSNSFFWGWIRQPPGKGLEWIATISYSGSTYYNPSLKSRVTISVDTSNNQFSLRLSSVTAADTAVYYCARLRWLRGKFDPWGQGTLVTVSS
chain 2: B6 chain 2 with E12G, R24G, G26S, D27G, N28S, Q39K, V96S, N98I, F99H, W100V
B8: C1223 (protein)
chain 1: QVQLQESGPGLVKPSETLSLTCAVSGGSISGYYWNWIRQPPGKGLEWIGYIYYTGSTNYNPSLKSRVTISLDTSKNRFSLKLSSVTAADTAVYYCARLEWLQGRFDYWGQGTLVTVSS
chain 2: NFMLTQPHSVSESPGKTVIISCTRSSGSIANNYVQWYQQRPGSSPITVIYEDNQRPSGVPDRFSGSIDSSSNSASLTISGLKTEDEADYYCQSYDTSNHVFGGGTKLTVL
B9: C1231 (protein)
chain 1: QVQLVESGGGVVQPGKSLRLSCAASGFTFSNYDMHWVRQAPGKGLEWVAIISSDGSSKFYADSMKGRFSISRDNSRNTLYLQMNSLRPEDTAVYYCARDQDVDTSMVPIFAYWGQGTLVTVSS
chain 2: DIQMTQSPSSLSASVGDRVTITCRASQSISGYLNWYQQKPGKAPKLLIYGASSLQSGVPSRFSGSGSGTDFSLTISSLQPEDFATYYCQQSYSTLALTFGGGTKVEIK
B10: C1213 (protein)
chain 1: QVQLVQSGAEVKKPGSSVKVSCKASGGTFSSYAINWVRQAPGQGLEWMGGILPALHIANSTQKFQGRVTITADKSTTTAYMELSSLRSEDTAVYYCARGSFRDPAMWGPMPEKFQHWGQGTLVTVSS
chain 2: DIQMTQSPSSLSASVGDRVTITCRASQSISSYLNWYQQKPGKAPKLLIHAASNLQSGVPPRFSGSGSGTDFTLTISTLQPEDFATYYCQQSDSIPGTFGQGTKLEIK
B11: C1216 (protein)
chain 1: QVQLQESGPGLVKPSQTLSLTCTVSGGSIRSDDYYWSWIRQPPGKGLEWIGYISYSGSTYKNPSLRSRVTISLDTSKNQFSLKLSSVTAADTAVYYCAREVLTTVGGGNWFDPWGQGTLVTVSS
chain 2: SYELTQPPSVSVAPGKTARITCGGNEIGSKSVHWYQQKPGQAPVLVIYYDSDRPSGIPERFSGSNSGNTATLTISRVEAGDEADYYCQVWDSTSDHHPYVFGTGTKVTVL
B12: C1218 (protein)
chain 1: EVQLVESGGGLVQPGGSLRLSCAASGFTFSTYDMHWVRQVTGKGLEWVSAIGTSGDTYYPDSVKGRFTISRENAKNSVYLQMKSLRAEDTAVYYCVRATFDSRNYHNWFDPWGQGTLVTVSS
chain 2: DIQMTQSPSSLSASVGDRVTITCRASLSISNYLNWYQQRPGKAPKLLIYAASSLQSGVPSRFSGSGSGTDFTLTINSLQPEDFATYYCQQGYGTPPWTFGQGTKVEIK
B13: C1227 (protein)
chain 1: EVQLVESGGGLVQPGGSLRLSCAASGFTFSSYDMHWVRQSTVKGLEWVSVIGTADDTYYPDSVKGRFTISRENAKNSLYLQMNSLRAEDTAVYYCARGVFDSSGFYSSFDYWGQGTLVTVSS
chain 2: DIQMTQSPSSLSASIGDRVTITCRASQSISRYLNWYQQKPGKAPKLLIFAASSLQSGVPSRFSGSGSGTDFTLTISGLQPEDFATYYCQQSYITPGYTFGQGTKLEIK
B14: C1234 (protein)
chain 1: EVQLVESGGGLVQPGGSLRLSCEASGVIVSSNYMNWVRQAPGKGLEWVSLIYSGGSTYYADSVKGRFTISRDNSKNTLYLQMNSLRAEDTAVYYCARDLQQAGGFDYWGQGILVTVSS
chain 2: DIQMTQSPSSLSASVGDRVTITCQASQDIRNYLNWYQQKPGKAPKLLIYNASNLGRGVPSRFSGSGSGTDFTFTISSLQPEDIATYYCQQYDNLPITFGQGTRLEIK
B15: C1221 (protein)
chain 1: QVQLVQSGAEVKKPGASVKVSCKASGYTFTSYYIHWVRQAPGQGLEWMGIINPGGGSTSYAQKFQGRLTMTRDTSTSTVYMELSSLRSEDTAVYYCGRFYDSTGVFDYWGQGTLVTVSS
chain 2: DIQMTQSPSSLSASVGDRVTITCRASQGIRNDLGWYQQKPGKAPKCLIYDASSLQSGVPSRFSGSGSGTEFTLTISSLQPEDFATYYCLQHNSYPFLTFGGGTKVEIK
B16: C1211 (protein)
chain 1: QVQLVQSGAEVKKPGSSVKVSCKASGGTFSSYGISWVRQAPGQGLEWMGRIIPMFGIVNYAQRFQGRVTITADKSTSTVYMELSSLRSEDTAVYYCARDQWESDYYDNSDYYYVDYWGQGTLVTVSS
chain 2: QSVLTQPPSVSGAPGQRVTISCTGSSSNIGAGYDVHWYQQLPGTAPKLLIYDNSNRPSGVPDRFSGSKSGTSASLAITGLQAEDEADYHCQSYDRSLSDVVFGGGTKLTVL

molecular target: SARS-CoV-2 Wuhan-Hu-1 spike pseudovirus; assay: pseudovirus neutralization IC50; higher = weaker neutralization
Protocol: (§1)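 Single-round luciferase reporter pseudovirus mixed with antibody dilutions and put on 293T-ACE2 cells for 48 h; signal relative to no-antibody wells, four-parameter fit.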

Row | Binder | pseudovirus neutralization IC50 [µg/mL]
1 | B1 | > 1
2 | B2 | 0.00826
3 | B3 | > 1
4 | B4 | > 1
5 | B5 | > 1
6 | B6 | 0.113
7 | B7 | 0.21
8 | B8 | 0.081
9 | B9 | 0.302
10 | B10 | 0.0258
11 | B11 | 0.536
12 | B12 | > 1
13 | B13 | 0.979
14 | B14 | 0.0206
15 | B15 | 0.00957
16 | B16 | 0.0954

molecular target: SARS-CoV-2 Wuhan-Hu-1 spike pseudovirus; assay: pseudovirus neutralization IC90; higher = weaker neutralization
Protocol: as §1

Row | Binder | pseudovirus neutralization IC90 [µg/mL]
17 | B1 | > 1
18 | B2 | 0.0858
19 | B3 | > 1
20 | B4 | > 1
21 | B5 | > 1
22 | B6 | 0.798
23 | B7 | > 1
24 | B8 | > 1
25 | B9 | > 1
26 | B10 | 0.103
27 | B11 | > 1
28 | B12 | > 1
29 | B13 | > 1
30 | B14 | 0.0483
31 | B15 | 0.0603
32 | B16 | > 1

molecular target: SARS-CoV-2 Wuhan-Hu-1 spike receptor-binding domain; assay: ELISA binding EC50; higher = weaker binding; ELISA of recombinant human antibody on coated antigen, from 10 µg/ml in fourfold dilutions; four-parameter fit.

Row | Binder | ELISA binding EC50 [µg/mL]
33 | B1 | 0.00328
34 | B2 | 0.00106
35 | B3 | 0.00243
36 | B4 | > 10
37 | B5 | 0.00302
38 | B6 | 0.00374
39 | B7 | 0.0016
40 | B8 | 0.00143
41 | B9 | 0.00139
42 | B10 | 0.00205
43 | B11 | 0.00264
44 | B12 | 0.00338
45 | B13 | 0.0014
46 | B14 | 0.000863
47 | B15 | 0.0017
48 | B16 | 0.0028
